{"source": "ChEMBL document CHEMBL4888484", "about": "“Replenishing the malaria drug discovery pipeline: Screening and hit evaluation of the MMV Hit Generation Library 1 (HGL1) against asexual blood stage Plasmodium falciparum ,using a nano luciferase reporter read-out” (2022)", "note": "Screen size: about 4,800 compounds; about 420 (8.8%) showed an effect of 50% or more. This is one part of the list."}
{"tested_on": "Plasmodium falciparum", "experiment": "Confirmatory screen in NF54 nanoGlo assay, in single point, at 2uM, 72h", "type": "functional, Erythrocyte", "conditions": "timepoint 72 hour", "units": {"% Inhibition": "%"}}
{"smiles": "C[C@H]1NC(=O)N(CCc2nc(C(F)(F)F)cs2)C1=O", "% Inhibition": -18}
{"smiles": "Nc1cc2c(cc1C1=Nc3ccccc3C(c3ccccc3)(c3ccccc3)N1)OCO2", "% Inhibition": 10}
{"smiles": "O=C(CC1CCOCC1)N1CCN(C(=O)c2ccco2)CC1", "% Inhibition": -13}
{"smiles": "O=C(CC(c1ccccc1)c1ccccc1)N1CC(=O)N2CCc3ccccc3[C@@H]2C1", "% Inhibition": 0}
{"smiles": "COc1ccc(NC(=O)c2cc(C3CC3)nc3onc(C4CC4)c23)cc1Cl", "% Inhibition": -3}
{"smiles": "C=CCS(=O)(=O)NC(=O)c1cc(C)c(C)cc1Cl", "% Inhibition": -2}
{"smiles": "COc1ccc(-c2nccn3cc(C(=O)N4CCN(c5cccc(OC)c5)CC4)nc23)cc1", "% Inhibition": -6}
{"smiles": "CN(C)C(=O)c1cc2c(s1)CC[C@H](C(=O)NCCN1CCOCC1)C2", "% Inhibition": 6}
{"smiles": "Cc1nc2ccc(Cl)cc2c(-c2ccccc2)c1C1=NN(S(C)(=O)=O)[C@H](c2ccccc2Cl)C1", "% Inhibition": -11}
{"smiles": "O=C1C2ON(c3ccccc3)C(c3ccncc3)C2C(=O)N1c1ccc2ccccc2c1", "note": "(configuration not stated)", "% Inhibition": 7}
{"smiles": "O=C(NCc1ccc2c(c1)OCO2)c1cccc2c1C(=O)N(C1CCCCC1)C2", "% Inhibition": -17}
{"smiles": "Cn1cccc1CNC1CCCCCC1C(N)=O", "note": "(configuration not stated)", "% Inhibition": -3}
{"smiles": "C[C@@H]1CN(C(=O)NCCc2ccc(C(F)(F)F)cn2)C[C@H](C)O1", "% Inhibition": -6}
{"smiles": "CC[C@@H](CN(C)Cc1ccccc1)NC(=O)C1CCN(c2nc3cccnc3n(CC)c2=O)CC1", "% Inhibition": 27}
{"smiles": "Brc1ccc2c(c1)C1CCCCC1N2", "note": "(configuration not stated)", "% Inhibition": -6}
{"smiles": "C#CCOc1ccc(CCNC(=O)N(C)c2c(C)noc2C)cc1", "% Inhibition": 6}
{"smiles": "CC(C)C[C@@H]1N[C@H](C(=O)NC2CCCC2)Cc2cn(C)c3cccc1c23", "% Inhibition": 4}
{"smiles": "c1cc([C@@H]2CCCCN2c2nc(C3CC3)ns2)n[nH]1", "% Inhibition": 2}
{"smiles": "O=C1[C@@H]2[C@H](Cc3c[nH]c4ccccc34)N[C@]3(C(=O)Nc4ccccc43)[C@@H]2C(=O)N1c1cccc(C(F)(F)F)c1", "% Inhibition": 7}
{"smiles": "Fc1ccc(COc2ccc3ccccc3c2CNc2ccc(Br)cc2)cc1", "% Inhibition": 2}
{"smiles": "Cc1cccc(Oc2nc3ccccc3n3c(=O)n(CC(=O)NCc4ccc(Cl)cc4)nc23)c1C", "% Inhibition": -10}
{"smiles": "Cc1ccc(NCc2ccc(OCc3cccc4ccccc34)c(Br)c2)cc1", "% Inhibition": 2}
{"smiles": "Fc1cccc(-n2nc(-c3ccccc3F)cc2-c2ccccc2F)c1", "% Inhibition": -6}
{"smiles": "Cc1ccc(C(=O)N2CCC(N3C(=O)[C@H]4CCCN4C3=O)CC2)cc1", "% Inhibition": -9}
{"smiles": "Cc1ccc(CS(=O)(=O)NC(=O)N2CCC(c3ccccc3)CC2)cc1", "% Inhibition": 3}
{"smiles": "Cc1ccccc1CC(=O)Nc1ccc(-c2nc3ncccc3o2)cc1", "% Inhibition": 1}
{"smiles": "Cc1cc(C)c(C(=O)Cn2nc3ccc(-c4ccc(Cl)cc4)nn3c2=O)c(C)c1", "% Inhibition": 4}
{"smiles": "COC(=O)C(NCc1cnc(C)s1)C(C)O", "note": "(configuration not stated)", "% Inhibition": 7}
{"smiles": "COc1ccc(Cl)cc1S(=O)(=O)N(C)[C@H]1CCc2n[nH]c(=O)n2CC1", "% Inhibition": -5}
{"smiles": "O=S(=O)(NCc1ccc(C(F)(F)F)nc1N1CCC(C(F)(F)F)CC1)C(F)(F)F", "% Inhibition": 4}
{"smiles": "Cc1cc(C)c(NC(=O)CCn2c(=O)c(C)nc3cc(C)c(C)cc32)c(C)c1", "% Inhibition": 3}
{"smiles": "O=C(Nc1nccs1)c1ccc2c(c1)CC(c1ccccc1)(c1ccccc1)OC2=O", "% Inhibition": -3}
{"smiles": "CN(C(=O)CN(C)S(=O)(=O)c1cccnc1)C1CCCC1", "% Inhibition": -5}
{"smiles": "O=S(=O)(Oc1ccc(Cc2ncc(C(F)(F)F)cc2Cl)cc1)c1ccccc1Cl", "% Inhibition": 2}
{"smiles": "COCCN(Cc1c(-c2cccc(C)c2)noc1N1CCOCC1)C(=O)C1CCCC1", "% Inhibition": -5}
{"smiles": "COc1ccccc1[C@H]1CC(O)=Nc2c1ncn2-c1cc(F)ccc1F", "% Inhibition": -3}
{"smiles": "CC1(C)CC(C(=O)Oc2ccccc2)CC(C)(C)N1", "% Inhibition": -6}
{"smiles": "O=C(Nc1cccc(C(F)(F)F)c1)S(=O)(=O)c1ccccc1", "% Inhibition": -13}
{"smiles": "Cc1cccc(CN2CCC[C@H](C(=O)c3ccc4c5c(cccc35)CC4)C2)n1", "% Inhibition": 63}
{"smiles": "CN1C(=O)[C@@H]2CCCCN2c2ccc(C(=O)N3CCN(c4cccc(Cl)c4)CC3)cc21", "% Inhibition": 4}
{"smiles": "CCc1c([C@H](C)S(=O)(=O)c2ccccc2)[nH]c(=O)n1Cc1cccs1", "% Inhibition": -9}
{"smiles": "CCNC(=O)NCCOC(=O)c1cccc(C)c1Cl", "% Inhibition": 1}
{"smiles": "CC(C)N1CCO[C@H](C(=O)Nc2c[nH]nc2-c2ccccc2)C1", "% Inhibition": -5}
{"smiles": "C[C@H]1CCCN(c2nc(-c3ccccn3)nc3ccccc23)C1", "% Inhibition": 97}
{"smiles": "COc1ccc(CC(=O)N2CCN(c3cnn4cnnc4c3)CC2)cc1", "% Inhibition": 1}
{"smiles": "CCOC(=O)NC(c1ccccc1F)C1CCCCCCC1=O", "note": "(configuration not stated)", "% Inhibition": -9}
{"smiles": "CC(C)(C)[C@@H](O)CCNC(=O)c1ccco1", "% Inhibition": -3}
{"smiles": "CCOc1ccc(NC2=NC(=O)[C@@H](C#N)C3(CCN(Cc4ccccc4)CC3)N2)cc1", "% Inhibition": 4}
{"smiles": "C[C@@H](Cn1c(=O)[nH]c2ccccc2c1=O)N(C)c1ccccc1", "% Inhibition": -3}
{"smiles": "Cc1c(CN(C)C(=O)Cn2ncc(Br)c2C)cnn1C", "% Inhibition": -7}
{"smiles": "Cc1ccc(C)c(/C=C/c2nnc(C)o2)c1", "% Inhibition": -12}
{"smiles": "CCc1nc(C(=O)N2C[C@@H]3CCCN(C(=O)c4coc(CC)n4)[C@@H]3C2)co1", "% Inhibition": 0}
{"smiles": "O[C@H](COCc1ccccc1)CN(Cc1c(-c2ccccc2F)noc1N1CCOCC1)C1CC1", "% Inhibition": 2}
{"smiles": "O=C(O)CCNC(=O)c1ccc(NC(=O)c2cnc(-c3ccsc3)s2)cc1", "% Inhibition": 0}
{"smiles": "CCCC[C@H](Oc1ccc(C(C)(C)CC)cc1C(C)(C)CC)C(=O)Nc1ccc(NC(=O)C(F)(F)C(F)(F)C(F)(F)F)c(O)c1", "% Inhibition": 30}
{"smiles": "CC(=O)c1cccc(NC(=O)Cc2c(C)nc3nc(C4CCCCC4)nn3c2C)c1", "% Inhibition": 5}
{"smiles": "CCCc1cc(NC(=O)N(CC)CCc2nccs2)n(C)n1", "% Inhibition": 2}
{"smiles": "O=C(CCS(=O)(=O)c1ccc2ccccc2c1)Nc1ncn(Cc2c(F)cccc2Cl)n1", "% Inhibition": 2}
{"smiles": "CC(C(=O)Nc1nccs1)N1CCCC(c2ccn[nH]2)C1", "note": "(configuration not stated)", "% Inhibition": 50}
{"smiles": "Cc1nnc([C@@H](NC(=O)Nc2ccccc2F)C(C)C)[nH]1", "% Inhibition": 3}
{"smiles": "CC1CC(C)CN(C(=O)c2cc(NC(=O)c3ccccc3)n(C)n2)C1", "note": "(configuration not stated)", "% Inhibition": -9}
{"smiles": "COc1ccc(C(=O)CN2C=CCC=C2c2nc(-c3ccc(Cl)cc3)cs2)cc1", "% Inhibition": 72}
